Laboratory results from PubChem BioAssay AID1347120 (National Center for Advancing Translational Sciences (NCATS), 2019).
Out of some 390,000 compounds screened, about 930 (0.24%) were called active. Inconclusive results, whose numbers are uncertain, are shown with a selection of clear calls. Calls follow the shape of the dose curve; as a rule, active = well fitted activation curve with a large enough effect; inconclusive = small, poorly fitted or top-dose-only effect; inactive = no such curve, though single readings can be large or run the other way. Where the call is inconclusive, the potency comes from a doubtful curve fit.

Assay: qHTS for Suppressors of FUS Proteinopathy: Primary screen using FUS-linked yeast assay; also: nearly all actives have a fitted effect of over 55% in size;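 as to growth rescue (activation): plate controls were DMSO vehicle for no effect and reference control for full effect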
Settings: S. cerevisiae FUS-expressing, OD600, 24 h; Potency: growth rescue; growth rescue (activation): at 76.6 µM (top of the series)
How it was run: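 Cultures pregrown in 2.5% raffinose medium are shifted to minimal medium containing 2% galactose to express toxic FUS. Compounds are tested at several concentrations. After 24hr at 30C, growth is quantified at 600 nm absorbance.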
Potency is read from the fitted curve at half-maximal effect; tags tell the direction and shape of the fitted curve.

SMILES	Potency	growth rescue (activation)
N#CC1=C(Nc2ccccc2Cl)SC2(CCCC2)NC1=O	inactive	
COC(=O)C1=CC[C@@H](NC(=O)OC(C)(C)C)[C@H](O)[C@H]1O[Si](C)(C)C(C)(C)C	inconclusive: 12.6 µM [activator, partial curve, poor fit]	
O=C(COC(=O)c1cccc(OC(F)F)c1)Nc1cccc(S(=O)(=O)N2CCCC2)c1	inconclusive: 20 µM [activator, partial curve, poor fit]	
CCN(CC)c1ccc(C=Nc2ccc(N(C)C)cc2)c(O)c1	inconclusive: 31.6 µM [activator, partial curve, poor fit]	
O=C(/C=C/c1ccccc1)Nc1nc2n(n1)C(c1ccc(F)cc1)C=C(c1ccccc1)N2 (stereo not given)	inconclusive: 31.6 µM [activator, partial curve, poor fit]	
Cc1[nH]c(=O)[nH]c(=O)c1S(=O)(=O)N1CCCC(C(=O)N2CCN(c3cccc(C(F)(F)F)c3)CC2)C1 (stereo not given)	inconclusive: 39.8 µM [activator, partial curve, poor fit]	
C[C@H](O)[C@@H]1C(=O)N2CCc3ccc(-c4cccc(F)c4)cc3[C@@H]2C[C@@H]1N(C)C(=O)Nc1ccccc1	inconclusive: 50.1 µM [activator, single point]	
Cc1cc(C)c(S(=O)(=O)NCC(c2ccco2)S(=O)(=O)c2cccs2)c(C)c1 (stereo not given)	inconclusive: 12.6 µM [activator, partial curve]	
COc1ccc(CNC(=O)O[C@H]2CC[C@@]34CCCN3C(=O)CCC[C@H]4C2)cc1OC	inactive	
CC(=O)c1ccc(-n2c(=O)[nH]c(=O)c3c(N)c(C(=O)c4ccc(Cl)cc4)sc32)cc1	inactive	
CC1CCc2onc(C(=O)N3CCN(c4cccc(Cl)c4)CC3)c2C1 (stereo not given)	inactive	
O=C(c1ccc(F)cc1)N1CCOC(c2nc(-c3ccc(F)cc3)no2)C1 (stereo not given)	inactive	
Cc1ccc(NC(=O)Cc2ccc3c(c2)OCCO3)cc1S(=O)(=O)N1CCCCC1	inconclusive: 50.1 µM [activator, single point]	
CCOC(=O)C1CCCN(C(=O)c2ccc3nc(-c4ccc(OC)c(OC)c4)c(-c4ccc(OC)c(OC)c4)nc3c2)C1 (stereo not given)	inconclusive: 25.1 µM [activator, partial curve]	
C[C@H](CO)N1C[C@H](C)[C@@H](CN(C)C(=O)Nc2ccc3c(c2)OCO3)Oc2c(NC(=O)Nc3ccc(C(F)(F)F)cc3)cccc2C1=O	active: 22.4 µM	
CCn1c2ccccc2c2cc([N+](=O)[O-])ccc21	inactive	
O=[N+]([O-])c1ccc(C(O)C(CO)NC(=S)Nc2ccccc2)cc1 (stereo not given)	inactive	
CCn1c(SCC(=O)N2CCc3ccccc32)nnc1-c1ccco1	inconclusive: 35.5 µM [activator, partial curve, poor fit]	
Cc1cccc(NC(=O)c2cc(-c3ccccn3)nc3ccccc23)c1C	inconclusive: 35.5 µM [activator, single point]	
CN(C)c1ccc(/C=N/N=C2/NC(=O)/C(=C/c3ccc([N+](=O)[O-])cc3)S2)cc1	inactive	

SMILES	Potency	growth rescue (activation)
CSc1ccccc1NC(=O)CN(C)C(C)C(=O)NC(=O)NC1CCCCC1 (stereo not given)	inconclusive: 31.6 µM [activator, single point]	
C/C=C/c1cccc(-c2nc(C(=O)NC3Cc4ccccc4C3)cc3c2[C@@H](CCO)N(C(C)=O)C3)c1	inconclusive: 20 µM [activator, partial curve, poor fit]	
CCn1c(SC(C)C)nnc1-c1cc(-c2ccccc2)sc1N	inconclusive: 7.94 µM [activator, full curve, poor fit]	
O=C(Nc1ccccc1Cl)c1cc(C2CCCN(C(=O)c3cccc(O)c3)C2)on1 (stereo not given)	inconclusive: 28.2 µM [activator, single point]	
COc1cccc(C2CC(c3c(-c4ccccc4)c4cc(Cl)ccc4[nH]c3=O)=NN2S(C)(=O)=O)c1OC (stereo not given)	active: 35.5 µM	
COc1ccc(OCC2c3cc(OC)c(OC)cc3CCN2C(=O)c2c(F)cccc2F)cc1 (stereo not given)	inconclusive: 35.5 µM [activator, single point]	
CCCCCCc1c(C)c2ccc(OCC(=O)N3CCC[C@H]3C(=O)O)c(C)c2oc1=O	inconclusive: 31.6 µM [activator, single point]	
CCOC(=O)[C@H]1[C@H]2COc3ccc(Cl)cc3[C@@H]2N2C(=O)CN(Cc3ccc(C)cc3)C(=O)[C@@]12C	inconclusive: 39.8 µM [activator, single point]	
Cc1ccc(N(Cc2ccc(C(=O)NN=C3CCN(C)CC3)cc2)S(C)(=O)=O)cc1C	inconclusive: 22.4 µM [activator, partial curve]	
CC(C)(C)N1C(=O)[C@H]2[C@@H](c3ccc(Br)cc3)N3C(=O)N(c4cccc(F)c4)C(=O)[C@@]3(Cc3ccccc3)[C@H]2C1=O	inconclusive: 15.8 µM [activator, partial curve, poor fit]	
COc1ccc(CN2C(=O)C(CC(=O)NCc3cccc4ccccc34)CC(C(=O)N(C(C)C)C(C)C)=C2C)cc1 (stereo not given)	inconclusive: 31.6 µM [activator, partial curve, poor fit]	
CC(OC(=O)/C=C/c1ccccc1)C(=O)Nc1ccc(C(N)=O)cc1 (stereo not given)	inconclusive: 31.6 µM [activator, single point]	
CCOCCn1c(=O)c2c(nc3n2CCN3c2ccc(C)c(C)c2)n(C)c1=O	inactive	
COc1cccc(CN2c3ccc(Br)cc3C(=O)CS2(=O)=O)c1	inconclusive: 31.6 µM [activator, single point]	
C=CCn1c(=NC(=O)c2ccco2)sc2cc(C(=O)OCC)ccc21	inactive	
O=S1(=O)CC(N2CCSCC2)CN1Cc1cn(Cc2cccc(C(F)(F)F)c2)nn1 (stereo not given)	inactive	
Cc1cn2c(=O)cc(COC(=O)c3ccc(NC(=O)C(C)Oc4ccccc4)cc3)nc2s1 (stereo not given)	inactive	
CCOc1ccccc1C(=O)NC(C(=O)OCC(=O)Nc1nnc(-c2ccccc2)o1)C(C)C (stereo not given)	inconclusive: 35.5 µM [activator, single point]	
CCOC(=O)/C(C#N)=C1/SC(C)C(=O)N1c1ccc(Br)cc1 (stereo not given)	active: 22.4 µM	
CCCCCCCCN1C(=O)[C@H](CC(=O)NCc2cccc(C(F)(F)F)c2)C[C@@]2(C(=O)OCC)CCC=C12	inconclusive: 31.6 µM [activator, single point]	

SMILES	Potency	growth rescue (activation)
COc1ccc(-n2c(=O)c3c4c(sc3n(Cc3ccc(C(C)(C)C)cc3)c2=O)CCC4)c(OC)c1	inconclusive: 31.6 µM [activator, partial curve, poor fit]	
Cc1ccc(-c2ccc(CCC(=O)O)n2-c2cccc(C)c2C)cc1	inconclusive: 31.6 µM [activator, single point]	
CCOc1ccc(OCC)c(NC(=O)CN(c2ccc(OC)cc2)S(=O)(=O)c2c(C)noc2C)c1	inconclusive: 22.4 µM [activator, single point]	
Cc1ccc(/C=C/C(=O)O)cc1S(=O)(=O)N1CCc2ccccc21	inactive	
COc1ccc([C@H]2N[C@]3(CCCN(Cc4ccc(F)cc4)C3=O)[C@H]3C(=O)N(Cc4ccccc4)C(=O)[C@@H]23)cc1	inconclusive: 35.5 µM [activator, single point]	
Cc1ccc(-n2nnnc2SCC(=O)c2cc(C)n(-c3cc(C)on3)c2C)c(C)c1	inconclusive: 10 µM [activator, partial curve]	
COc1cc(C(=O)Nc2nccs2)ccc1OCc1c(C)noc1C	inactive	
COc1ccc(NC(=O)C2CCC(C(C)(C)C)CC2)cc1S(=O)(=O)N1CCCCC1 (stereo not given)	inconclusive: 50.1 µM [activator, partial curve, poor fit]	
CCOC(=O)C(NC(=O)CC)(Nc1nc2c(s1)CCCC2)C(F)(F)F (stereo not given)		inconclusive: 93.5% [activator]
CCOc1ccc(CCNC(=O)c2ccc3c(c2)N(Cc2ccccc2)C(=O)c2ccccc2S3=O)cc1OCC (stereo not given)	active: 25.1 µM	
[O-][n+]1nc2ccccc2c2ccccc21	inconclusive: 0.794 µM [activator, partial curve, poor fit]	
COc1ccc(S[C@]2(C(=O)N3CCOCC3)CC(=O)N(c3ccsc3)[C@@H]2c2ccc(OC)cc2)cc1	inconclusive: 14.1 µM [activator, partial curve, poor fit]	
Cc1ccc(-c2cc(-c3ccccc3Cl)[nH]n2)c(O)c1	inactive	
CCC(C(=O)Nc1ccc2c(c1)OCCO2)n1nnc2ccccc2c1=O (stereo not given)	inactive	
O=c1oc2c(-c3ccc([N+](=O)[O-])cc3)cc(O)cc2s1	inconclusive: 3.16 µM [activator, full curve]	
COC/C=C/C1=CC2=CC(=O)C(C)(OC(=O)c3cnc4ccccc4n3)C(=O)C2=CN1Cc1ccc(OC)cc1 (stereo not given)	inconclusive: 28.2 µM [activator, partial curve]	
CCCC(=O)C1=C(c2ccc(C)cc2)N(C(=O)CCC)n2cnnc2S1	inconclusive: 35.5 µM [activator, single point]	
COc1ccc(-c2nc3scc(CCNS(=O)(=O)c4ccc(F)c(C(F)(F)F)c4)n3n2)cc1OC	inactive	
CN(C)S(=O)(=O)c1ccc(Cl)c(NC(=O)COC(=O)[C@@H]2CCCN2C(=O)c2cccs2)c1	inconclusive: 25.1 µM [activator, partial curve]	
CC(=O)N1CCOc2cc(S(=O)(=O)N3CCN(c4ccccc4)CC3)c(Cl)cc21	inconclusive: 31.6 µM [activator, single point]	
